Data: the supplement of paper PMC3334620
Over roughly 33,000 sequences, “E-score (-0.5 to 0.5)” has its median near -0.016; the highest 2% begin near 0.31. Some of the results follow.

biological target: Cst6 (UniProt P40535); assay: PBM E-score (8-mer binding enrichment) (E-score (-0.5 to 0.5)); higher = stronger / more preferred TF binding; most listed sequences are background and not binding sites; details: protein concentration: 200 nM; construct: GST-DNA-binding domain
Protocol: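 Universal 'all 10-mer' protein binding microarrays (Agilent AMADID 015681) probed with GST-tagged S. cerevisiae TFs (full-length or DBD) made by in vitro transcription/translation (PURExpress), about 100-200 nM. Bound TF was detected with fluorescent anti-GST. Each ungapped 8-mer (which stands for itself and its reverse complement) is scored by the PBM enrichment score (E-score), a modified Wilcoxon-Mann-Whitney statistic from -0.5 to +0.5, computed with the Universal PBM Analysis Suite. Scale: above 0.35 generally sequence-specific binding.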

Sequence | PBM E-score
CTTTGTGA | 0.0351
CCTTCTCA | -0.0671
AGCTTTGA | -0.0152
CGGAAGTC | -0.0996
ACCCGGCC | -0.237
AAAGAGTA | 0.174
CCGTAGTA | -0.0994
GGCTTCAA | -0.1
ATACTGAT | 0.268
GCTGAACA | -0.0724
CCTCGAAG | 0.0886
ATAAAGTC | 0.207
AGGTTATA | 0.0265
AGAAGGCT | -0.238
GGGAGTGA | 0.0473
CCTGACCC | -0.235
TACGGTAA | 0.264
CAGCGCTA | -0.0215
CTAACCAA | 0.0449
CAGGGTAC | -0.18
CAGCCGGC | -0.0906
AACCCGAT | 0.067
CTCTGAGC | -0.185
AAAGGACC | -0.185
GGTCCACA | -0.209

Sequence | PBM E-score
AACACTCG | 0.0139
CTGGCCCC | -0.294
CTACTGGC | -0.194
CTCCAGCA | -0.144
ATGACCAA | 0.189
AATAGCGC | 0.0638
AGTTAAAA | 0.26
GCCCCTAC | -0.153
GGATAGCC | -0.184
ACAAGGTA | -0.00222
CCGAACAC | -0.00678
GTAGTCAA | 0.14
CGGGAACC | -0.338
AAGTGTTC | 0.0462
AAGTATGA | 0.197
TCGTAAGA | 0.00239
GTGTAACA | 0.051
AAGAGAAT | 0.098
ATTGCTAC | -0.113
TCGACGCA | 0.0326
CATTAAGC | 0.00686
CTGTCATC | 0.186
GTATATAC | 0.0155
AAACTCCG | -0.128
ACCTTTAA | 0.0501

Sequence | PBM E-score
AAATGAGG | 0.0632
ATGTCGAC | 0.15
GCCTCGCC | -0.122
GTCATGAA | 0.268
AATGTGAT | 0.204
CTCGTCCA | 0.0723
AAGATCGA | 0.023
AGGGTGTA | -0.125
AGGCTACT | -0.187
AGCGCACC | -0.215
GATTCACC | -0.0601
GTCGACCA | -0.167
ACGGTCGC | -0.136
CAAGGTCC | -0.186
AGCTTTCG | -0.219
GCACAAGA | 0.115
TCCCGAGA | -0.0675
GTCACCAC | 0.373
ACCAACGA | -0.113
CTTTGGAC | 0.0595
CAAGCCTA | -0.148
ATTCTCGG | 0.0985
CACTAGCG | -0.0495
CCAGGGTA | -0.198
GCGGGCTA | -0.179

Sequence | PBM E-score
GATTACTA | 0.173
AAACCCCG | 0.00659
ACGAGCAT | -0.0556
CCGTACTA | 0.141
CATATCAC | 0.176
ATTGTAGC | 0.0304
AGGTATCA | -0.115
ATCTATCC | -0.00634
CCCACTCA | -0.104
CCTAGTTA | -0.0163
CATCGTAG | 0.00214
ACGCTTAC | -0.00275
ACGAGTCC | -0.167
GGCCATAC | -0.076
GGACCAAA | 0.0638
ACTAAGAA | 0.0236
AGGAACAA | -0.0886
TACATTGA | 0.192
TATGAGGA | 0.0397
AGTTCGGC | -0.00229
ACGTTACG | 0.279
TATCCCAA | 0.00913
ACGACACG | 0.0167
GTAACCCA | 0.193
AGACTTAG | -0.238

Sequence | PBM E-score
AACCGACC | -0.054
ATGCTGAG | -0.248
CAACGCAG | -0.272
GAATAACC | -0.112
GCCTGAAA | 0.127
GCGCACCC | -0.193
ACACACGG | -0.00142
CGTCGGAG | -0.154
GGGCGCCC | -0.0491
CACGTCTC | -0.097
ATAAACCG | 0.0517
CTAATGCA | 0.186
ACCCTTTC | -0.0516
ACAGACGC | -0.104
GAACGTGA | 0.0338
GCCTCGTA | 0.204
CACCTGCA | -0.114
GTAGCCGA | -0.191
CATGCTAA | 0.00082
GACGCTCC | -0.102
GAATCACC | 0.0583
GTATCGCA | -0.116
CGGGACCG | -0.291
ACTAGACT | -0.218
AGTGTCAA | 0.141

Sequence | PBM E-score
CAGATATC | -0.0267
ACGGTGCC | 0.116
ACAAAGTC | -0.126
CCGCTGAC | 0.065
AGTGAAAA | 0.162
ACCTAGGT | -0.287
CCCGCACG | -0.0726
CAGGTTTA | -0.0603
ATGAGAAA | 0.167
TAAGACGA | -0.0639
AGCGATGA | 0.146
AATAAGCC | -0.0423
ACTGGTCT | -0.225
CGCAGTTA | 0.0733
CCGCCTGA | -0.113
ATGAGCAT | 0.174
CCAGGCCC | -0.323
ATTGCCCC | -0.136
CCTACTAC | -0.106
ACATCACA | 0.328
GCGTCAGA | 0.313
GCCGATTA | 0.0737
AACTACTA | 0.12
CAGAGTGG | -0.131
AGAAACAG | 0.0873

Sequence | PBM E-score
AGACGCCT | -0.0063
GATTACCA | 0.0453
AAAGTAGT | 0.13
CATTAGGG | -0.144
ACGTAGTG | 0.142
TCAATCGA | 0.249
ATCCCAAA | 0.0214
ATCAAAAG | 0.142
AAGACGCC | -0.00396
CTAATATA | 0.302
AGGCCAGG | -0.308
CTGTCAAG | -0.12
GCTTTACC | 0.0079
CCTCAAAA | 0.0169
CTGACAAG | 0.0332
GGAACCCC | -0.368
GGCCTACC | -0.282
TAACTGGA | -0.0202
GCCGTGCA | 0.279
CCTCGTAC | -0.0456
AACTTTTA | 0.247
ATGAGTAC | 0.0463
CCTAGGTC | -0.201
CCTCTTAA | 0.124
CATTGCTA | 0.185

Sequence | PBM E-score
CCACTACA | 0.0554
AGGGAGAA | -0.16
CAACCAAA | 0.0452
AACTCTAC | -0.156
ACAAGTAG | -0.24
CGTAAGTA | 0.262
AGATAAGC | 0.0952
CCCAAAGG | -0.172
CTCACATC | 0.0865
AGTAAGCC | -0.121
ATTTCGCA | 0.0702
AAGGTCTG | -0.159
CCAATTCG | 0.0572
AACCGCCG | 0.1
AACAGGAC | 0.0447
AGACAATG | 0.028
CATATATA | 0.272
GAGCTACA | -0.194
AGGGACCC | -0.304
CCTGAGAC | -0.303
ACGATCGG | -0.127
CGCCGTTC | 0.228
TCCTTTCA | 0.119
AGTAAAGC | 0.0858
AGGTGTCC | -0.165

Sequence | PBM E-score
AAGAAAGT | 0.153
GGTCATCA | 0.247
ACTCACGC | 0.0424
CATCGTAA | 0.206
ACTCTATA | 0.0999
GTGCAATA | 0.0163
AAATGCGC | 0.0552
GACCCATA | -0.0639
GATAATGA | 0.189
AACCGTTA | -0.0371
ATCGACTA | -0.0453
TATCAGCA | 0.052
CAAGATGA | 0.0421
ACCCAAGG | -0.00867
TAACGGGA | -0.0596
ACGGAACT | 0.063
AGAGATCA | -0.0737
CTGTAATC | -0.0108
ATCGAAAT | 0.129
